# About 9,900 (2.8%) of roughly 350,000 compounds were called active. The shares of active, inactive and inconclusive entries below differ from those in the screen. Calls follow the shape of the dose curve; as a rule, active = well fitted activation curve with a large enough effect; inconclusive = small, poorly fitted or top-dose-only effect; inactive = no such curve, though single readings can be large or run the other way. No potency is given beside an inconclusive call; the fits are too rough.
# Assay: A quantitative high throughput screen for small molecules that induce DNA re-replication in MCF 10a normal breast cells. Also: nearly all actives have a fitted effect of over 50% in size.
# Conditions: MCF 10A DNA re-replication, Hoechst nuclear intensity, 48 h; series mostly up to 46.1 µM
# Potency is read from the fitted curve at half-maximal effect; tags tell the direction and shape of the fitted curve.
row,SMILES,Potency
1,Cc1nc(Cl)cc(N/N=C/c2ccc(O)cc2)n1,inactive
2,CCCN=C1N(C)C[C@@H]2[C@@H]3C(=O)N(C)C(=O)[C@@H]3[C@](C)(C(=O)OC)N12,inactive
3,O=C(CNc1cccc(C(F)(F)F)c1)N/N=C/c1cn(-c2ccccc2)nc1-c1ccccc1,"inconclusive [activator, single point]"
4,CCN(CC(=O)Nc1ccc(NC(C)=O)cc1)C(=O)c1ccc2c(c1)S(=O)(=O)N=C1CCCCCN12,"inconclusive [activator, single point]"
5,O=S(=O)(Nc1cccc(-c2cn3cccnc3n2)c1)c1ccccc1,"inconclusive [activator, partial curve, poor fit]"
6,CCN1CCN(C(=O)c2cnn3c(C(F)F)cc(-c4ccc(C)cc4)nc23)CC1,inactive
7,CCOC(=O)c1ccc(N=c2sc(C(=O)OC)cc(=O)n2Cc2ccco2)cc1,"inconclusive [activator, single point]"
8,Cn1c(=O)c2c(ncn2CC(=O)Nc2nc(-c3ccccc3Cl)cs2)n(C)c1=O,inactive
9,COCCNC(=O)CN(c1ccc(C)cc1)S(=O)(=O)c1ccc(SC)cc1,inactive
10,NS(=O)(=O)c1ccc(CCNC(=O)Cn2c(=O)c3cccn3c3cccnc32)cc1,inactive
11,Cc1ccc(NC(=O)CCn2ccc([N+](=O)[O-])n2)nc1,"inconclusive [activator, partial curve, poor fit]"
12,Cc1noc2ncnc(Sc3ccc(Cl)cc3)c12,active: 11.6 µM
13,Cc1ccc(CNC(=O)c2ccc(N(C)S(=O)(=O)c3ccccc3)cc2)cc1,inactive
14,COc1ccccc1NC(=O)Nc1ccccc1Br,"inconclusive [activator, single point]"
15,CCSS(=O)(=O)c1cccc2cccnc12,"inconclusive [activator, single point]"
16,O=C(O)COc1ccc(NC(=O)c2ccco2)cc1,"inconclusive [activator, single point]"
17,COc1cccc(NC(=O)c2oc3ccccc3c2NC(=O)C2CC2)c1,inactive
18,C#CCN1C(=O)C(O)(CC(=O)c2ccc3c(c2)OCCO3)c2ccccc21 (centres undefined),inactive
19,Cc1cc(-n2c(C)cc(C(=O)CSc3ncnc4ccccc34)c2C)no1,"inconclusive [activator, single point]"
20,CCCCCCC(=O)Nc1ccc(Br)cn1,"inconclusive [activator, single point]"
21,CCN(CCNC(=O)C1CCN(Cc2nc(-c3cccc(Cl)c3)oc2C)CC1)c1ccccc1,"inconclusive [activator, partial curve, poor fit]"
22,O=C(O)CCCCCN1C(=O)/C(=C/c2ccncc2)SC1=S,"inconclusive [activator, single point]"
23,NC(=O)c1ccc(NC(=O)COC(=O)c2c3c(nc4ccccc24)/C(=C\c2cccs2)CCC3)cc1,active: 23.1 µM
24,COc1ccc(CC(C)N2CCN(Cc3ccccc3)CC2)c(OC)c1 (centres undefined),"inconclusive [activator, single point]"
25,Cc1ccc(NC(=O)NC2CCCCCCC2)cc1C,"inconclusive [activator, full curve, poor fit]"

row,SMILES,Potency
1,CC1CCc2c(C(=O)Nc3ccc(OC(F)(F)F)cc3)csc2C1 (centres undefined),"inconclusive [activator, partial curve, poor fit]"
2,CCCCN(CC)Cc1ccc(CNC(=S)Nc2c(C)cc(C)cc2C)o1,inactive
3,NNC(=O)CNC(=O)c1cccc(Br)c1,"inconclusive [activator, partial curve, poor fit]"
4,Cc1ccc(NC(=O)COC(=O)Cn2cnc3ccccc32)c(C)c1,inactive
5,CCOc1ccc(N2C(=O)CC(Sc3nc4ccc(OCC)cc4s3)C2=O)cc1 (centres undefined),"inconclusive [activator, single point]"
6,c1ccc(-n2cnc3cc(NCc4ccccn4)ccc32)cc1,active: 5.8 µM
7,COc1cc(OC)nc(Oc2ccc(NC(C)=O)cc2)n1,"inconclusive [activator, partial curve, poor fit]"
8,CSc1nc2sc3c(c2c2nnnn12)CCCC3,"inconclusive [activator, partial curve, poor fit]"
9,O=C(Nc1cccc(S(=O)(=O)N2CCOCC2)c1)C12CC3CC(CC(C3)C1)C2,"inconclusive [activator, partial curve, poor fit]"
10,COc1ccc(C(CNC(=O)CN(C)S(=O)(=O)c2ccc(C)cc2)N2CCCC2)cc1 (centres undefined),inactive
11,CCC1(C)Cc2ccccc2C(=S)N1 (centres undefined),inactive
12,CCOc1ccc(N2C(=O)C(Cl)=C(Nc3ccccc3O)C2=O)cc1,"inconclusive [activator, single point]"
13,c1ccc(-c2ccccc2OCCOCCN2CCc3ccccc3C2)cc1,"inconclusive [activator, partial curve, poor fit]"
14,Cc1cn2c(nc1=O)OC1C(O)C(COC(=O)c3ccccc3)OC12 (centres undefined),"inconclusive [activator, single point]"
15,O=[N+]([O-])c1ccc(N(CC(O)CN2CCCCC2)S(=O)(=O)c2ccccc2)cc1 (centres undefined),inactive
16,CCc1cc(C(=O)OC)c(NC(=O)CC2Nc3cc(C)c(C)cc3NC2=O)s1 (centres undefined),"inconclusive [activator, partial curve, poor fit]"
17,O=C(Nc1sc2c(c1C(=O)NCc1ccco1)CCCC2)c1ccc2c(c1)OCO2,"inconclusive [activator, single point]"
18,CC(C)CC(=O)/C(=C\c1ccc(Cl)cc1Cl)n1cncn1,active: 4.61 µM
19,CC1CCc2c(sc(NC(=O)CSc3nc4c(c(C(F)(F)F)n3)CCc3ccccc3-4)c2C(N)=O)C1 (centres undefined),"inconclusive [activator, partial curve, poor fit]"
20,CC(C)COc1ccc(C(=O)Nc2ccc(N3CCOCC3)cc2N2CCOCC2)cc1,inactive
21,C=C1CC2C3CC[C@@]4(OCOC45COCO5)[C@@]3(C)C(O)CC2[C@@]2(C)CCC(=O)C=C12 (some centres undefined),active: 5.17 µM
22,CN(c1ccc(C(=O)N2CCOCC2)cc1)S(=O)(=O)c1ccc(Cl)cc1,inactive
23,CC(=O)Nc1ccc(S(=O)(=O)NCCc2csc(-c3cccnc3)n2)cc1,"inconclusive [activator, single point]"
24,CCOc1nc(NCCc2ccc(OC)c(OC)c2)nc(NC(C)(C)CO)n1,inactive
25,CN(C)c1ccc(/C=N/N(CCC#N)C2=NS(=O)(=O)c3ccccc32)cc1,inactive

row,SMILES,Potency
1,COc1cc2c(cc1OC)C(C)N(C(=O)C1=NN(c3cccc(C)c3)C(=O)CC1)CC2 (centres undefined),inactive
2,CC(C)(C)c1cc(Cl)ccc1OCCOCCN1CCCC1,inactive
3,COc1cccc(OC)c1C(=O)Nc1nc2cc3c(cc2s1)OCO3,inactive
4,CC(C)Oc1nc(-c2ccccc2O)nc2ccccc12,"inconclusive [activator, full curve]"
5,CN1CCN(c2ccc(NC(=O)COc3ccccc3Cl)cc2)CC1,"inconclusive [activator, partial curve, poor fit]"
6,CCc1sc(N(C(=O)Cc2ccccc2)c2ccccc2F)nc1-c1ccc(C)cc1,inactive
7,O=C(Nc1ccc(Cl)cc1)Nc1ccc2c(c1)N1CCN=C1S2,"inconclusive [activator, full curve]"
8,COC(=O)C(Cc1ccccc1)NC(=O)c1cccc(S(=O)(=O)N(C)C)c1 (centres undefined),inactive
9,CCCCOc1ccc(C(=O)C(CN2CCOCC2)c2ccccc2)cc1 (centres undefined),"inconclusive [activator, single point]"
10,O=C1c2sc3nc4c(c(=O)n3c2C(=O)N1c1ccccc1)CCC4,inactive
11,CCOC(=O)C1(Cc2cccc(Cl)c2)CCCN(C(=O)c2c(CC)noc2C)C1 (centres undefined),inactive
12,CC(/C=N/NC(=O)c1n[nH]c2c1CCC2)=C\c1ccccc1,active: 0.259 µM
13,COC(=O)c1c(NC(=O)CN2CCC3(O)CCCCC3C2c2ccc(F)cc2)sc(C)c1C (centres undefined),"inconclusive [activator, full curve]"
14,CCC(=O)NC(c1ccco1)c1cc(Cl)c2cccnc2c1O (centres undefined),"inconclusive [activator, single point]"
15,O=S(=O)(Nc1ccc(F)cc1)N1CCOCC1,"inconclusive [activator, single point]"
16,Cn1c(SCCOc2ccc(Cl)cc2)nnc1-c1ccncc1,"inconclusive [activator, partial curve, poor fit]"
17,CC(=O)c1cccc(NC(=O)C2CCCN2S(=O)(=O)c2cccc3cccnc23)c1 (centres undefined),inactive
18,O=C(O)c1ccc(C[n+]2c(-c3ccccc3)csc2Nc2ccccc2)cc1,"inconclusive [activator, single point]"
19,Cc1cccc(C)c1NC(=O)c1sccc1SCc1cccc(C(F)(F)F)c1,"inconclusive [activator, partial curve]"
20,CCn1c(COc2ccccc2C)nnc1SCC(=O)NC1CCCC1,"inconclusive [activator, partial curve, poor fit]"
21,COc1ccc(S(=O)(=O)NCc2cccnc2)cc1OC,inactive
22,CCc1cc(CNC(=O)C2CCC(=O)N(CCc3cccc(F)c3)C2)on1 (centres undefined),inactive
23,CCOC(=O)C(C(=O)OCC)N(C#N)c1nc(C)cc(C)n1,inactive
24,Nc1nnn(CC(=O)N/N=C/c2cn[nH]c2-c2ccccc2)n1,inactive
